In PubChem BioAssay (Tox21):
Inconclusive results, whose numbers are uncertain, are shown with a selection of clear calls. For some of these results: No potency is given beside an inconclusive call; the fits are too rough. Active and inactive are the calls of the source. The call rests on the fitted dose curve; in most records, active means well fitted curve in the direction sought with a large enough effect in the repeat runs; inconclusive means weak or mixed curves; inactive means no such curve, though single readings can be large; an effect the other way counts as inactive or inconclusive.

What was measured:
[1] = qHTS assay to identify small molecule agonists of the retinoic acid receptor (RAR) signaling pathway (AID 1159553); conditions: C3RL4 RARE luciferase reporter, agonist, 6 h; series mostly up to 73.3 µM; further: potency means the concentration at half of the fitted maximal effect
Method in brief: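 Seed C3RL4 reporter cells at 1,000 per well and incubate overnight at 37 C. Add compounds in DMSO, incubate 6 hr. Add luciferase reagent, wait 30 min at room temperature, read luminescence.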

[2] = qHTS assay to identify small molecule antagonists of the estrogen related receptor (ERR) signaling pathway from Tox21 library - cell viability counter screen (AID 1224834); conditions: ERR reporter cells viability, CellTiter-Fluor, 17.5 h; series mostly up to 92.4 µM; further: potency means the concentration at half of the fitted maximal effect; nearly all actives have a fitted effect of over 30% in size
Method in brief: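 ERR cells, 2,000/well; 6 h settle at 37 C/5% CO2; pin-tool compound transfer in DMSO; 17.5 h at 37 C; CellTiter-Fluor, 30 min; fluorescence intensity.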

[3] = qHTS assay to identify small molecule antagonists of the estrogen related receptor (ERR) signaling pathway - cell viability counter screen (AID 1224818); conditions: ERR reporter cell line viability counter screen; series mostly up to 46.1 µM;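 further: viability measured after 17.5 h of compound exposure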
Method in brief: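 ERR cells, 2,000/well; 6 h settle at 37 C/5% CO2; compound pin transfer (DMSO); 17.5 h at 37 C; CellTiter-Fluor, 30 min, fluorescence read.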

[4] = qHTS assay to identify small molecule agonists of the estrogen related receptor (ERR) signaling pathway (AID 1224820); conditions: ERR reporter cell line, luciferase agonist mode; further: potency means the concentration at half of the fitted maximal effect
Method in brief: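 An ERR cell line provided by NTP was seeded at 2,000 cells per well and allowed to settle for 6 h before compounds in DMSO were added. After 18 h at 37 C, luciferase activity was measured by One-Glo luminescence.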

[5] = qHTS assay to identify small molecule agonists of the estrogen related receptor signaling pathway with the pleiotropic PPARgamma coactivator (PGC) (AID 1224823); conditions: ERR/PGC reporter cell line, luciferase agonist mode; further: potency means the concentration at half of the fitted maximal effect
Method in brief: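 Compounds dissolved in DMSO are added by pin tool to PGC/ERR cells that have settled for 6 h, and incubation continues 18 h at 37 C. Reporter output is measured as One-Glo luminescence.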
Tags describe the fitted curve by direction and shape.

COc1ccc(C(=O)c2ccc(OC)cc2O)c(O)c1
Potency [1]: inconclusive [activator, full curve]
Potency [2]: inconclusive [cytotoxic, partial curve]

COc1ccc(CCN(C)CCCC(C#N)(c2cc(OC)c(OC)c(OC)c2)C(C)C)cc1OC (stereo not drawn)
Potency [1]: inactive
Potency [3]: inactive

C[C@@H]1[C@H](O)[C@@H](C)/C=C/C=C\C=C\C=C\C=C\C=C\C=C\[C@H](O[C@@H]2O[C@H](C)[C@@H](O)[C@H](N)[C@@H]2O)C[C@@H]2O[C@](O)(C[C@@H](O)C[C@@H](O)[C@H](O)CC[C@@H](O)C[C@@H](O)CC(=O)O[C@H]1C)C[C@H](O)[C@H]2C(=O)O (stereo in doubt)
Potency [1]: inconclusive [inhibitor, partial curve, poor fit]
Potency [2]: active: 61.1 µM

Nc1ccc2c3c(cccc13)-c1ccccc1-2
Potency [1]: inconclusive [activator, full curve]
Potency [2]: inconclusive [rising, partial curve]

O=C1CCCc2c1cc1ccc3cccc4ccc2c1c34
Potency [1]: inconclusive [activator, full curve, poor fit]
Potency [2]: inconclusive [cytotoxic, partial curve]

C1COC(NC(C2CC2)C2CC2)=N1
Potency [4]: inconclusive [activator, partial curve, poor fit]

CC(C)NCC(O)c1ccc(O)c(O)c1 (stereo not drawn)
Potency [4]: inconclusive [activator, single point]

COC(=O)Nc1nc2ccc(C(=O)c3cccs3)cc2[nH]1
Potency [5]: active: 1.96 µM
